Experiment [1] concerns the target T1, recombinant cyno-CD8A ECD polypeptide fused at its C-terminus to a human Fc tag (cynomolgus monkey).
T1 construct: Bought from Sino Biological US Inc; also called ECD of cynomolgus monkey CD8A with Fc tag; not shown: human Fc tag
Briefly: BLI (Gator Prime), cyno CD8A ECD-Fc as antigen. Here is the method:
To understand the species cross-reactivity to cyno-CD8A, the binding kinetics of anti-CD8 VHH-Fc antibodies to cyno-CD8A were also measured on Gator Prime. A recombinant cyno-CD8A ECD polypeptide of SEQ ID NO: 108 (UniProt A0A2K5ULI8) fused at its C-terminus to a human Fc tag was used as antigen (Sino Biological US Inc.).

Experiment [2] addresses T2, ECD of human CD8A/B heterodimer with His tag (recombinant CD8 alpha and beta heterodimer protein, Sino … (human, UniProt P01732 22-182; P10966 22-170).
T2 construct: extracellular domain; Bought from Sino Biological US Inc; also called Human CD8A/B with His tag; hu-CD8A/B heterodimer; not shown: poly histidine tag at the C-terminus
Briefly: BLI (Gator Prime), antibody captured on anti-human IgG Fc probe, 1:1 fit. The procedure:
Biolayer interferometry was used to measure the association and dissociation constants for the binding kinetics of the bivalent anti-human CD8A VHH antibodies. The binding kinetics was measured on a Gator Prime system (Gator Bio, Inc.) at 30° C. and analyzed with the Gator Prime software. Anti-human-IgG Fc (HFC) probe (Gator Bio, Inc.) was used to capture the anti-hu-CD8 VHH antibodies or control antibodies. A kinetic buffer only well was set as a reference well for subtraction during data processing. Data were fitted with a 1:1 Langmuir model for association and dissociation using Rmax linked global fitting for each antibody-antigen binding. Human CD8A/B with His tag is recombinant CD8 alpha and beta heterodimer protein with a poly histidine tag fused to C-terminus (Sino Biological US Inc.).

T2 sequence (P01732 22-182, chain 1 of 2): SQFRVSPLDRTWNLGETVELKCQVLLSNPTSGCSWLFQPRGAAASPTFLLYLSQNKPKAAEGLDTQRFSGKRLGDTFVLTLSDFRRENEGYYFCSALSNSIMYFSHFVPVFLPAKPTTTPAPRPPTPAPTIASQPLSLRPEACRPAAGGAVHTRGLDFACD
T2 sequence (P10966 22-170, chain 2 of 2, further chain): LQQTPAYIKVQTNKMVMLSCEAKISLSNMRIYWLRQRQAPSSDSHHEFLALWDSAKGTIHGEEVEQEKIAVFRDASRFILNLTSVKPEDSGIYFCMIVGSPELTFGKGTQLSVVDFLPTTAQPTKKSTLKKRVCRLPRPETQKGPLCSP

B1: anti-CD8 VHH antibody clone 3D12 (bivalent VHH-Fc) (Fc fusion)
chain: QVQLVESGGGLVQAGGSLRLSCAASGNIDEIASIRAMDWYRQAPGRQRELVAHIARNGITDYKDFVKGRFTISRDNAKNTVYLQMNSLKPEDTAVYYCNTVPWYGTWGQGTQVTVSS[here human IgG1 Fc without letters]
notes: VHH fused to hinge and Fc of human IgG1; bivalent
In the case of B1, in experiment [1], the Kd was determined as 0.0547 nM, the off-rate constant (koff) worked out at 0.000127 s⁻¹ and the on-rate constant (kon) stood at 2.32e+06 M⁻¹ s⁻¹. Besides, in experiment [2], the Kd turned out to be 8.38 nM, the dissociation rate constant (koff) stood at 0.00313 s⁻¹ and the on-rate constant (kon) was 373000 M⁻¹ s⁻¹.

B2: anti-CD8 VHH antibody clone 3A8 (bivalent VHH-Fc) (Fc fusion)
chain: QVQLQESGGGLVQAGGSLRLSCAASGFTFDEYAIGWFRQAPGKEREGVSCLRVSDGRTYYPDSVKGRFAISSDNAKNTVYLQMNNLKPEDTAVYYCASGSYYGCTVDDYDFWGQGTQVTVSS[here human IgG1 Fc without letters]
notes: VHH fused to the N-terminus of hinge and Fc of human IgG1; bivalent; made in CHO cells
As for B2, in experiment [1], the equilibrium dissociation constant (Kd) came to 0.0921 nM, the off-rate constant (koff) worked out at 0.000102 s⁻¹ and the kon was 1.11e+06 M⁻¹ s⁻¹. For the same molecule, in experiment [2], the Kd is 8.84 nM, the off-rate constant (koff) was 0.00266 s⁻¹ and the kon worked out at 301000 M⁻¹ s⁻¹.

B3: anti-CD8 VHH antibody clone 3D10 (bivalent VHH-Fc) (Fc fusion)
chain: QVQLQESGGGLVQAGGSLRLSCAASGFTFDEYAIGWFRQAPGKEREGVSCLRVSDGRTYYPDSVKGRFAISSDNAKNTVYLQMNNLKPEDTAVYYCASGSYYGCTVHDYDFWGQGTLVTVSS[here human IgG1 Fc without letters]
notes: as for B1
Consider B3, for which, in experiment [1], the Kd stood at 0.795 nM, the koff came out at 0.000432 s⁻¹ and the association rate constant (kon) was found to be 544000 M⁻¹ s⁻¹. For the same molecule, in experiment [2], the Kd was determined as 8.25 nM, the koff is 0.00226 s⁻¹ and the kon was 274000 M⁻¹ s⁻¹.

B4: anti-CD8 VHH antibody clone 3A4 (bivalent VHH-Fc) (Fc fusion)
chain: QVQLQESGGGLVQAGGSLRLSCAASGFTFDEYAIGWFRQAPGKEREGVSCLRVSDGRTYYPDSVKGRFAISSDNAKNTVYLQMNNLKPEDTAVYYCASGSYYGCTVHDYDFWGQGTQVTVSS[here human IgG1 Fc without letters]
notes: as for B1
B4: in experiment [1], the Kd was found to be 0.568 nM, the off-rate (koff) was 0.000301 s⁻¹ and the kon came out at 530000 M⁻¹ s⁻¹. Moreover, in experiment [2], the Kd was 8.59 nM, the koff stood at 0.00236 s⁻¹ and the kon was 274000 M⁻¹ s⁻¹.

B5: humanized anti-CD8 VHH antibody clone 3A8-hu01 (bivalent VHH-Fc) (Fc fusion)
chain: EVQLVESGGGLVQPGGSLRLSCAASGFTFDEYAIGWFRQAPGKEREGVSCLRVSDGRTYYPDSVKGRFTISRDNSKNTVYLQMNSLRAEDTAVYYCASGSYYGCTVDDYDFWGQGTQVTVSS[here human IgG1 Fc without letters]
For the molecule B5, in experiment [1], the dissociation constant (Kd) was 0.598 nM, the dissociation rate constant (koff) was found to be 0.000124 s⁻¹ and the on-rate constant (kon) is 207000 M⁻¹ s⁻¹. In experiment [2], the Kd was found to be 8.7 nM, the off-rate constant (koff) was 0.00296 s⁻¹ and the kon stood at 340000 M⁻¹ s⁻¹.

B6: anti-CD8 VHH antibody clone 4D5 (bivalent VHH-Fc) (Fc fusion)
chain: QVQLQESGGGLVQAGGSLRLSCAASGFTFNEYAIGWFRQAPGKEREGVSCLRVSDGRTYYPYSVKGRFAISNDNANNTVYLQMNNLKPEDTAVYYCASGSYYGCTVDDYDFWGQGTQVTVSS[here human IgG1 Fc without letters]
notes: as for B1
For the molecule B6, in experiment [1], the dissociation constant (Kd) was found to be 0.143 nM, the koff is 0.000128 s⁻¹ and the kon was 898000 M⁻¹ s⁻¹. Also, in experiment [2], the equilibrium dissociation constant (Kd) was 6.08 nM, the dissociation rate constant (koff) worked out at 0.00193 s⁻¹ and the on-rate (kon) came out at 318000 M⁻¹ s⁻¹.

B7: anti-CD8 VHH antibody clone 4H5 (bivalent VHH-Fc) (Fc fusion)
chain: QVQLQESGGGLVQAGGSLRLSCAASGLTVNSDHMAWFRQAPGKWRDFVAAISGNGGSTYYADSVKGRFTISRDDAKNTVYLQMNSLKPEDTAVYTCAADRQVWRAASYHDYDYDSWGQGTLVTVSS[here human IgG1 Fc without letters]
notes: as for B1
On to B7, for which, in experiment [1], the Kd stood at 43.6 nM, the off-rate (koff) was found to be 0.00786 s⁻¹ and the kon came to 180000 M⁻¹ s⁻¹. In experiment [2], the dissociation constant (Kd) turned out to be 43.6 nM, the off-rate (koff) came out at 0.00786 s⁻¹ and the on-rate (kon) is 180000 M⁻¹ s⁻¹.

B8: anti-CD8 VHH antibody clone 4C9 (bivalent VHH-Fc) (Fc fusion)
chain: QVKLEESGGGLVQAGDSLRLSCAASGLTVSSDHMAWFRQAPGKWREFVAAISGNGGSTYYADSVKGRFTISRDNAKNTVYLQMNNLKPEDTAVYSCAADRQVWRVASYHDYDYDSWGQGTQVTVSS[here human IgG1 Fc without letters]
notes: as for B1
On to B8, for which, in experiment [1], the dissociation constant Kd worked out at 0.0965 nM, the off-rate constant (koff) was 0.000102 s⁻¹ and the kon worked out at 1.05e+06 M⁻¹ s⁻¹. Also, in experiment [2], the Kd came to 3.47 nM, the koff stood at 0.00116 s⁻¹ and the association rate constant (kon) turned out to be 334000 M⁻¹ s⁻¹.

B9: anti-CD8 VHH antibody clone 1A5 (bivalent VHH-Fc) (Fc fusion)
chain: QVQLVESGGGLVQAGGSLRLSCAASGFTFDDYAIGWFRQAPGKEREGVSCISNIDGSTYYADSVKGRFTISSDNAKNTVYLQMNSLKPEDTAVYYCAAEGLHSCRDLYYGMDYWGKGTLVTVSS[here human IgG1 Fc without letters]
notes: as for B1
Take B9: in experiment [1], the koff was 0.00282 s⁻¹ and the kon turned out to be 240000 M⁻¹ s⁻¹. Also, in experiment [2], the dissociation constant (Kd) turned out to be 11.8 nM, the off-rate (koff) stood at 0.00282 s⁻¹ and the kon was 240000 M⁻¹ s⁻¹.

B10: anti-CD8 VHH antibody clone 2G3 (bivalent VHH-Fc) (Fc fusion)
chain: QVQLQESGGGLVQPGGSLKLSCAASGFTFYDYAIGWFRQAPGKEREGVSCISNIDGSTYYADSVKGRFTISTDNAKNTVYLQMNSLKPEDTAVYYCAAEGLHSCRDLYYGMDYWGKGTLVTVSS[here human IgG1 Fc without letters]
notes: as for B1
In the case of B10, in experiment [1], the Kd amounted to 44.5 nM, the off-rate (koff) was 0.00953 s⁻¹ and the on-rate (kon) was determined as 214000 M⁻¹ s⁻¹. In experiment [2], the Kd was 44.5 nM, the off-rate constant (koff) came out at 0.00953 s⁻¹ and the kon stood at 214000 M⁻¹ s⁻¹.

B11: anti-CD8 VHH antibody clone 3G7 (bivalent VHH-Fc) (Fc fusion)
chain: QVQLQESGGGLVQAGGSLRLSCAASGSIAEIASLRAMDWYRQAPGKRRELVAHIARNDVTNYADDVKGRFTISRDNAKNAVYLQMNNLKPEDTAVYYCNTVPWYGTWGQGTLVTVSS[here human IgG1 Fc without letters]
notes: as for B1
B11: in experiment [1], the Kd is 0.937 nM, the koff worked out at 0.000432 s⁻¹ and the on-rate constant (kon) is 461000 M⁻¹ s⁻¹. Moreover, in experiment [2], the dissociation constant (Kd) is 23.8 nM, the dissociation rate constant (koff) came out at 0.00507 s⁻¹ and the on-rate constant (kon) is 213000 M⁻¹ s⁻¹.

In general, Kd refers to the constant that tells how readily two partners part at equilibrium. Broadly, the koff is the rate constant with which the complex falls apart. One may read the kon as a measure of how fast the partners come together.

The values above are taken from patent publication US20260209353A1 (BINACEA PHARMA, published 2026).
